# Assay results reported in the supplement of paper PMC8728848.
# Some of the results follow.
# B1: PX9961V-pdi-562-26-562 (Parabacteroides distasonis) (protein)
# chain: EIFSEITTDNYYQNSNNIYAALVNNYAKAFSTGWSDARYFLQEVTADQLMIPTRGKHGYNGGEYVRLHEHKWTVEENFVYNGWAAPFQGIALCNNTLSDFENLDFSTFKLTEETKNEYIAELRALRVWNYMFLIDFFRHVPIVTDIEEVKAQSTPLEVFNFMESELLAILPDLPKNRGVSRFDQAGVASILVRLYLNAEKWIGISKYDECEQMAQAILDGKYGEYSIDPDYRGPFRSGINGYRSKENIMEFAIKKNYFEASWLYNMWMHYQDRYSLDNDWQGWNGGNLAPSRDLYGNLYQDKLGMPFEKFPDGDIRKKAFRVISNDGDYEGFFLMGTQYKFDYEKGYGFTDEVITGTEEYNGKPLVYVDQVGRFSEGETGLAKGSHVIYGEENTGYRLIKFPWLPQSKDLFQMNSIPEIRLAEIYYSLAECKYRSGDKIGAARLLDVVRKRYYKAEDWSKFSYESNISKLTDDEFVDELGREFIGERHRRIDLIRWNRFSEGAWWDKTPDATNQDVFPIPYRALNANPLLKQTTAGF
# How the values were obtained:
# Test in all cases: glycan array binding signal (z-score within array); higher = stronger binding
# Conditions in all cases: glycan notation: IUPAC condensed, linker removed
# [1] = biological target: Neu5Ac(a2-3)Gal(b1-4)GlcNAc(b1-2)[Neu5Ac(a2-3)Gal(b1-4)GlcNAc(b1-4)]Man(a1-3)[GlcNAc(b1-4)][Neu5Ac(a2-3)Gal(b1-4)GlcNAc(b1-4)Man(a1-6)]Man(b1-4)GlcNAc(b1-4)GlcNAc
# Method in brief: (§1)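 The binding signal is a Z-score computed within each array and averaged over linkers. Arrays of the same protein sequence at different concentrations or buffers were also averaged together. Data originate from 3228 arrays in the Consortium for Functional Glycomics database, kept only where the protein sequence was available.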
# [2] = biological target: Neu5Ac(a2-3)Gal(b1-4)GlcNAc(b1-2)[Neu5Ac(a2-3)Gal(b1-4)GlcNAc(b1-6)]Man(a1-6)[Neu5Ac(a2-3)Gal(b1-4)GlcNAc(b1-2)Man(a1-3)]Man(b1-4)GlcNAc(b1-4)GlcNAc
# Method in brief: as §1
# [3] = biological target: Neu5Ac(a2-3)Gal(b1-4)GlcNAc(b1-2)[Neu5Ac(a2-3)Gal(b1-4)GlcNAc(b1-6)]Man(a1-6)[Neu5Ac(a2-3)Gal(b1-4)GlcNAc(b1-2)Man(a1-3)][GlcNAc(b1-4)]Man(b1-4)GlcNAc(b1-4)GlcNAc
# Method in brief: as §1
# [4] = biological target: Neu5Ac(a2-3)Gal(b1-4)GlcNAc(b1-3)Gal
# Method in brief: as §1
# [5] = biological target: Neu5Ac(a2-3)Gal(b1-4)GlcNAc(b1-3)Gal(b1-3)GlcNAc
# Method in brief: as §1
# [6] = biological target: Neu5Ac(a2-3)Gal(b1-4)GlcNAc(b1-3)Gal(b1-4)GlcNAc
# Method in brief: as §1
# [7] = biological target: Neu5Ac(a2-3)Gal(b1-4)GlcNAc(b1-3)Gal(b1-4)GlcNAc(b1-2)Man(a1-3)[Neu5Ac(a2-3)Gal(b1-4)GlcNAc(b1-3)Gal(b1-4)GlcNAc(b1-2)Man(a1-6)]Man(b1-4)GlcNAc(b1-4)GlcNAc
# Method in brief: as §1
# [8] = biological target: Neu5Ac(a2-3)Gal(b1-4)GlcNAc(b1-3)Gal(b1-4)GlcNAc(b1-3)Gal(b1-4)GlcNAc
# Method in brief: as §1
# [9] = biological target: Neu5Ac(a2-3)Gal(b1-4)GlcNAc(b1-3)Gal(b1-4)GlcNAc(b1-3)Gal(b1-4)GlcNAc(b1-2)Man(a1-3)[Neu5Ac(a2-3)Gal(b1-4)GlcNAc(b1-3)Gal(b1-4)GlcNAc(b1-3)Gal(b1-4)GlcNAc(b1-2)Man(a1-6)]GalNAc
# Method in brief: as §1
# [10] = biological target: Neu5Ac(a2-3)Gal(b1-4)GlcNAc(b1-3)Gal(b1-4)GlcNAc(b1-3)GalNAc
# Method in brief: as §1
# [11] = biological target: Neu5Ac(a2-3)Gal(b1-4)GlcNAc(b1-3)Gal(b1-4)GlcNAc(b1-3)[Neu5Ac(a2-3)Gal(b1-4)GlcNAc(b1-3)Gal(b1-4)GlcNAc(b1-6)]GalNAc
# Method in brief: as §1
# [12] = biological target: Neu5Ac(a2-3)Gal(b1-4)GlcNAc(b1-3)Gal(b1-4)GlcNAc(b1-6)[Gal(b1-3)]GalNAc
# Method in brief: as §1
# [13] = biological target: Neu5Ac(a2-3)Gal(b1-4)GlcNAc(b1-3)Gal(b1-4)[Fuc(a1-3)]GlcNAc
# Method in brief: as §1
# [14] = biological target: Neu5Ac(a2-3)Gal(b1-4)GlcNAc(b1-3)GalNAc
# Method in brief: as §1
# [15] = biological target: Neu5Ac(a2-3)Gal(b1-4)GlcNAc(b1-3)[Neu5Ac(a2-3)Gal(b1-4)GlcNAc(b1-6)]GalNAc
# Method in brief: as §1
# [16] = biological target: Neu5Ac(a2-3)Gal(b1-4)GlcNAc(b1-6)GalNAc
# Method in brief: as §1
# [17] = biological target: Neu5Ac(a2-3)Gal(b1-4)GlcNAc(b1-6)[Gal(b1-3)]GalNAc
# Method in brief: as §1
# [18] = biological target: Neu5Ac(a2-3)Gal(b1-4)GlcNAc(b1-6)[Neu5Ac(a2-3)Gal(b1-3)]GalNAc
# Method in brief: as §1
# [19] = biological target: Neu5Ac(a2-3)Gal(b1-4)GlcNAc6S
# Method in brief: as §1
# [20] = biological target: Neu5Ac(a2-3)Gal(b1-4)[Fuc(a1-3)]GlcNAc
# Method in brief: as §1
# [21] = biological target: Neu5Ac(a2-3)Gal(b1-4)[Fuc(a1-3)]GlcNAc(b1-2)Man
# Method in brief: as §1
# [22] = biological target: Neu5Ac(a2-3)Gal(b1-4)[Fuc(a1-3)]GlcNAc(b1-3)Gal
# Method in brief: as §1
# [23] = biological target: Neu5Ac(a2-3)Gal(b1-4)[Fuc(a1-3)]GlcNAc(b1-3)Gal(b1-4)GlcNAc
# Method in brief: as §1
# [24] = biological target: Neu5Ac(a2-3)Gal(b1-4)[Fuc(a1-3)]GlcNAc(b1-3)Gal(b1-4)[Fuc(a1-3)]GlcNAc(b1-3)Gal(b1-4)[Fuc(a1-3)]GlcNAc
# Method in brief: as §1
# [25] = biological target: Neu5Ac(a2-3)Gal(b1-4)[Fuc(a1-3)]GlcNAc(b1-3)GalNAc
# Method in brief: as §1
# [26] = biological target: Neu5Ac(a2-3)Gal(b1-4)[Fuc(a1-3)]GlcNAc(b1-6)[Gal(b1-3)]GalNAc
# Method in brief: as §1
# [27] = biological target: Neu5Ac(a2-3)Gal(b1-4)[Fuc(a1-3)]GlcNAc(b1-6)[Neu5Ac(a2-3)Gal(b1-3)]GalNAc
# Method in brief: as §1
# [28] = biological target: Neu5Ac(a2-3)Gal(b1-4)[Fuc(a1-3)]GlcNAc6S
# Method in brief: as §1
# [29] = biological target: Neu5Ac(a2-3)Gal6S(b1-4)GlcNAc
# Method in brief: as §1
# [30] = biological target: Neu5Ac(a2-3)Gal6S(b1-4)[Fuc(a1-3)]GlcNAc
# Method in brief: as §1
# [31] = biological target: Neu5Ac(a2-3)GalNAc
# Method in brief: as §1
# [32] = biological target: Neu5Ac(a2-3)GalNAc(b1-4)GlcNAc
# Method in brief: as §1
# [33] = biological target: Neu5Ac(a2-3)[GalNAc(b1-4)]Gal(b1-4)Glc
# Method in brief: as §1
# [34] = biological target: Neu5Ac(a2-3)[GalNAc(b1-4)]Gal(b1-4)GlcNAc
# Method in brief: as §1
# [35] = biological target: Neu5Ac(a2-3)[GalNAc(b1-4)]Gal(b1-4)GlcNAc(b1-3)GalNAc
# Method in brief: as §1
# [36] = biological target: Neu5Ac(a2-3)[Neu5Ac(a2-6)]GalNAc
# Method in brief: as §1
# [37] = biological target: Neu5Ac(a2-6)Gal
# Method in brief: as §1
# [38] = biological target: Neu5Ac(a2-6)Gal(b1-3)GlcNAc(b1-3)[Gal(b1-4)GlcNAc(b1-6)]Gal(b1-4)Glc
# Method in brief: as §1
# [39] = biological target: Neu5Ac(a2-6)Gal(b1-4)Glc
# Method in brief: as §1
# [40] = biological target: Neu5Ac(a2-6)Gal(b1-4)GlcNAc
# Method in brief: as §1
# [41] = biological target: Neu5Ac(a2-6)Gal(b1-4)GlcNAc(b1-2)Man
# Method in brief: as §1
# [42] = biological target: Neu5Ac(a2-6)Gal(b1-4)GlcNAc(b1-2)Man(a1-3)Man(b1-4)GlcNAc(b1-4)GlcNAc
# Method in brief: as §1
# [43] = biological target: Neu5Ac(a2-6)Gal(b1-4)GlcNAc(b1-2)Man(a1-3)[Gal(b1-4)GlcNAc(b1-2)Man(a1-6)]Man(b1-4)GlcNAc(b1-4)GlcNAc
# Method in brief: as §1
# [44] = biological target: Neu5Ac(a2-6)Gal(b1-4)GlcNAc(b1-2)Man(a1-3)[GlcNAc(b1-2)Man(a1-6)]Man(b1-4)GlcNAc(b1-4)GlcNAc
# Method in brief: as §1
# [45] = biological target: Neu5Ac(a2-6)Gal(b1-4)GlcNAc(b1-2)Man(a1-3)[GlcNAc(b1-4)][Neu5Ac(a2-6)Gal(b1-4)GlcNAc(b1-2)Man(a1-6)]Man(b1-4)GlcNAc(b1-4)GlcNAc
# Method in brief: as §1
binder,measurement,setting,value
B1,glycan array binding signal (z-score),[1],-0.104
same,glycan array binding signal (z-score),[2],0.076
same,glycan array binding signal (z-score),[3],-0.556
same,glycan array binding signal (z-score),[4],-0.014
same,glycan array binding signal (z-score),[5],-0.575
same,glycan array binding signal (z-score),[6],-0.53
same,glycan array binding signal (z-score),[7],0.084
same,glycan array binding signal (z-score),[8],-0.516
same,glycan array binding signal (z-score),[9],1.24
same,glycan array binding signal (z-score),[10],-0.319
same,glycan array binding signal (z-score),[11],0.75
same,glycan array binding signal (z-score),[12],-0.587
same,glycan array binding signal (z-score),[13],-0.356
same,glycan array binding signal (z-score),[14],-0.717
same,glycan array binding signal (z-score),[15],-0.361
same,glycan array binding signal (z-score),[16],-0.007
same,glycan array binding signal (z-score),[17],-0.243
same,glycan array binding signal (z-score),[18],-0.476
same,glycan array binding signal (z-score),[19],-0.76
same,glycan array binding signal (z-score),[20],-0.502
same,glycan array binding signal (z-score),[21],-0.714
same,glycan array binding signal (z-score),[22],-0.161
same,glycan array binding signal (z-score),[23],0.26
same,glycan array binding signal (z-score),[24],-0.133
same,glycan array binding signal (z-score),[25],0.905
same,glycan array binding signal (z-score),[26],1.74
same,glycan array binding signal (z-score),[27],2.66
same,glycan array binding signal (z-score),[28],-0.697
same,glycan array binding signal (z-score),[29],-0.522
same,glycan array binding signal (z-score),[30],-0.554
same,glycan array binding signal (z-score),[31],-0.616
same,glycan array binding signal (z-score),[32],-0.49
same,glycan array binding signal (z-score),[33],0.695
same,glycan array binding signal (z-score),[34],-0.308
same,glycan array binding signal (z-score),[35],1.22
same,glycan array binding signal (z-score),[36],-0.397
same,glycan array binding signal (z-score),[37],-0.037
same,glycan array binding signal (z-score),[38],-0.593
same,glycan array binding signal (z-score),[39],-0.644
same,glycan array binding signal (z-score),[40],-0.496
same,glycan array binding signal (z-score),[41],-0.436
same,glycan array binding signal (z-score),[42],0.528
same,glycan array binding signal (z-score),[43],-0.052
same,glycan array binding signal (z-score),[44],0.036
same,glycan array binding signal (z-score),[45],-0.373
